{"source": "PubChem BioAssay AID624296", "about": "(National Center for Advancing Translational Sciences (NCATS), 2012)", "note": "About 9,900 (2.8%) of roughly 350,000 compounds were called active. Inconclusive results, whose numbers are uncertain, are shown with a selection of clear calls. Calls follow the shape of the dose curve; as a rule, active = well fitted activation curve with a large enough effect; inconclusive = small, poorly fitted or top-dose-only effect; inactive = no such curve, though single readings can be large or run the other way. No potency is given beside an inconclusive call; the fits are too rough. Potency is read from the fitted curve at half-maximal effect; tags tell the direction and shape of the fitted curve."}
{"test": "A quantitative high throughput screen for small molecules that induce DNA re-replication in MCF 10a normal breast cells; also: nearly all actives have a fitted effect of over 50% in size.", "conditions": "MCF 10A DNA re-replication, Hoechst nuclear intensity, 48 h; series mostly up to 46.1 µM"}
{"smiles": "COc1cc2c(cc1NC(=O)CN1C(=O)NC3(CCc4ccccc43)C1=O)oc1ccccc12", "note": "(centres undefined)", "Potency": "inconclusive [activator, partial curve]"}
{"smiles": "C=CCN(Cc1ccc(Cl)s1)C(=O)c1ccc(F)c(S(=O)(=O)N2CCOCC2)c1", "Potency": "inconclusive [activator, partial curve, poor fit]"}
{"smiles": "O=C1NC(=S)S/C1=C\\c1cc2ccccc2nc1N1CCCCC1", "Potency": "inconclusive [activator, partial curve]"}
{"smiles": "CC(C)=CCC/C(C)=C/CNC(=O)CC1C[C@H](C(=O)N2CCCCC2)[C@@]2(C)c3[nH]c4ccccc4c3CCN2C1=O", "note": "(some centres undefined)", "Potency": "inconclusive [activator, partial curve, poor fit]"}
{"smiles": "O=C(NCC(=O)N1CCN(c2ncccn2)CC1)c1ccccc1OC(F)F", "Potency": "inactive"}
{"smiles": "CCC(C)c1ccc(OCC(=O)O)cc1", "note": "(centres undefined)", "Potency": "inactive"}
{"smiles": "O=c1c2cc(Br)ccc2nc(-c2ccc([N+](=O)[O-])cc2)n1O", "Potency": "inconclusive [activator, full curve]"}
{"smiles": "O=C(O)CC(CC(=O)O)c1ccsc1", "Potency": "inactive"}
{"smiles": "CC(C)C(=O)N(Cc1ccc(F)cc1)Cc1nc2ccccc2c(=O)[nH]1", "Potency": "inconclusive [activator, partial curve, poor fit]"}
{"smiles": "CSCCC(NC(=O)c1ccccc1)C(=O)OCC(=O)Nc1ccc(C)c(Cl)c1", "note": "(centres undefined)", "Potency": "inconclusive [activator, partial curve, poor fit]"}
{"smiles": "O=C(/C=C/c1cccs1)NNC(=O)c1ccccc1", "Potency": "inactive"}
{"smiles": "CCOc1ccc2[nH]c3c(=O)n(CCc4ccc(OC)cc4)cnc3c2c1", "Potency": "inactive"}
{"smiles": "COC(=O)CN1C(=O)S/C(=C/c2ccc(N3CCCCC3)o2)C1=O", "Potency": "inconclusive [activator, single point]"}
{"smiles": "CCN1C(=O)N(c2cccc3ccccc23)C(C)=CC1(C)C", "Potency": "inactive"}
{"smiles": "Cc1nc(OCc2ccccc2)c2ccccc2n1", "Potency": "inconclusive [activator, partial curve, poor fit]"}
{"smiles": "COC(C[C@H]1O[C@H]1[C@@H](O)[C@@H](C)OCc1ccccc1)OC", "Potency": "inactive"}
{"smiles": "O=C(O)COc1ccccc1/C=N/NC(=O)CSc1nc2ccccc2n1Cc1ccccc1Cl", "Potency": "inconclusive [activator, partial curve, poor fit]"}
{"smiles": "CC1Cc2ccccc2N1C(=S)Nc1ccc(S(N)(=O)=O)cc1", "note": "(centres undefined)", "Potency": "inactive"}
{"smiles": "CCOC(=O)C1(Cc2cccc(OC)c2)CCCN(C(=O)CCc2cccnc2)C1", "note": "(centres undefined)", "Potency": "inconclusive [activator, full curve, poor fit]"}
{"smiles": "Clc1ccc2nc(-c3ccc4c(c3)OCO4)cn2c1", "Potency": "inconclusive [activator, single point]"}
{"smiles": "O=[N+]([O-])c1cccc(S(=O)(=O)N2CCCCCC2)c1", "Potency": "inconclusive [activator, single point]"}
{"smiles": "O=C(NCCCn1ccnc1)c1cccc(S(=O)(=O)Nc2ccc(Br)cc2)c1", "Potency": "inconclusive [activator, partial curve]"}
{"smiles": "COC(=O)N1CC=CC1(C)C(=O)NCc1cc(F)cc(C(F)(F)F)c1", "note": "(centres undefined)", "Potency": "inconclusive [activator, single point]"}
{"smiles": "Cc1ccc(C)c(S(=O)(=O)N2CCN(c3nc(-c4cccnc4)nc4ccccc34)CC2)c1", "Potency": "active: 0.651 µM"}
{"smiles": "COC(=O)CSC1=C(C#N)C(c2ccc(C)o2)CC(=O)N1", "note": "(centres undefined)", "Potency": "inconclusive [activator, single point]"}
{"smiles": "C=C1CCN([C@@H](CC(C)C)C(=O)NCc2ccc(Cl)cc2)S(=O)(=O)c2ccccc21", "Potency": "inconclusive [activator, partial curve, poor fit]"}
{"smiles": "CCOC(=O)c1ccc2c(c1)n(CC)c(/C=C/N(C)c1ccccc1)[n+]2CC", "Potency": "inactive"}
{"smiles": "CC1(C)Oc2ccc3ccc(=O)oc3c2/C(=C/NC2CCCCC2)C1=O", "Potency": "active: 14.6 µM"}
{"smiles": "C=CCNc1ncnc2ccc(Br)cc12", "Potency": "inconclusive [activator, partial curve, poor fit]"}
{"smiles": "C=C(C)COc1ccc(-c2[nH]ncc2Oc2ccccc2OC)c(O)c1", "Potency": "inactive"}
{"smiles": "CCCCn1nc(C(=O)Nc2ccc(-n3cnnn3)cc2)c2ccccc2c1=O", "Potency": "inactive"}
{"smiles": "CCSc1nnc(CNC(=O)C23CC4CC(CC(C4)C2)C3)n1C1CCCCC1", "Potency": "inactive"}
{"smiles": "CC1(C)O[C@@H]2[C@H](O1)[C@@H](CO)O[C@H]2n1cnc2c(=O)[nH]cnc21", "Potency": "inactive"}
{"smiles": "NCCCCCc1nnc(SC/C=C/c2ccccc2)o1", "Potency": "inconclusive [activator, partial curve, poor fit]"}
{"smiles": "CC1=CC(C)(C)N(S(=O)(=O)c2ccc(F)cc2)c2ccc(C)cc21", "Potency": "inactive"}
{"smiles": "Cc1ccc(C)c(NS(=O)(=O)c2ccc3c(c2)Cc2cc(S(=O)(=O)Nc4cc(C)ccc4C)ccc2-3)c1", "Potency": "inconclusive [activator, partial curve, poor fit]"}
{"smiles": "O=C(N/N=C/c1ccccc1O)c1ccc2c(c1)OCO2", "Potency": "inconclusive [activator, single point]"}
{"smiles": "Cc1ccc(/C=C(/C#N)c2nc(CCN3C(=O)c4ccccc4C3=O)cs2)cc1", "Potency": "inconclusive [activator, partial curve, poor fit]"}
{"smiles": "CC(=O)Oc1ccc(Nc2ccccc2)cc1", "Potency": "inconclusive [activator, partial curve, poor fit]"}
{"smiles": "Cc1ccc(NC(=O)c2cccs2)cc1S(=O)(=O)Nc1cccc(Cl)c1", "Potency": "inconclusive [activator, single point]"}
{"smiles": "CC(C)n1c(SCc2ccc(Cl)cc2)nc2c1c(=O)[nH]c(=O)n2C", "Potency": "inconclusive [activator, single point]"}
{"smiles": "CCC(NC(=O)CCc1c(C)c2cc3c(-c4ccccc4)coc3cc2oc1=O)C(=O)O", "note": "(centres undefined)", "Potency": "inconclusive [activator, single point]"}
{"smiles": "Cc1ccc2nc(SCC(=O)Nc3cc(C(F)(F)F)ccc3N3CCOCC3)[nH]c2c1", "Potency": "active: 0.58 µM"}
{"smiles": "Cc1n[nH]c(C)c1CCC(=O)N/N=C/C=C/c1ccccc1", "Potency": "inconclusive [activator, partial curve, poor fit]"}
